Reference: US20260166128A1, “HUMAN AMYLIN ANALOG, AND DERIVATIVE THEREOF AND USE THEREOF” (priority 2022, published 2026)
Not every detail of the peptide structures is certain; ends, links or a residue may be inferred. Numbered stars: 1 amine (or outer) side, 2 acyl side, 3 side chain; on linkers, the order of the positions; unused ones are H or OH. Bridge positions count the residues as written; N and C are the ends. Side chains are listed from the residue outwards. Peptide text beside a SMILES is read from it. * marks the point of attachment. C20 diacid = O=C(O)CCCCCCCCCCCCCCCCCCC(=O)*; γGlu = O=C(O)[C@H](CCC(=O)[*:2])N[*:1]

Assay: Freeze-thaw stability of derivatives (freeze-thaw yield by liquid chromatography)
Type: physicochemical
Conditions: for Dissolution property: appearance after dissolution at 0.2 mg/ml in 20 mM phosphate buffer solution (PB) (pH 7.0); for Freeze storage property: appearance after overnight storage at −20° C. and thawing to room temperature, 0.2 mg/ml in 20 mM PB (pH 7.0); for Freeze storage yield: concentration of polypeptide after freezing and thawing / concentration before, by liquid chromatography, −20° C. overnight
Protocol: The freeze-dried powder of the polypeptide analog derivative prepared in Example 1 was mixed with a buffer solution according to a mass-volume ratio of 0.2 mg/ml, the polypeptide was dissolved with 20 mM phosphate buffer solution (PB) (pH 7.0), the sample was stored at −20° C. for overnight storage, and then the sample was taken out to be restored to room temperature for thawing. During the experiment, property changes of the polypeptide after dissolution and freezing and thawing were observed and recorded respectively, and concentrations of the polypeptide before and after the freezing and thawing were detected by the following liquid chromatography method: Materials and equipment: high-performance liquid chromatographic instrument (Agilent 1200), ultrapure water (18.2 MΩ self-manufactured ultrapure water), acetonitrile (HPLC grade), and trifluoroacetic acid (HPLC grade); and reversed-phase chromatographic column: […] A sample to be tested was centrifuged at 10,000 rpm and 4° C. for 3 minutes, and a supernatant was taken and added into a liquid-phase sample injection bottle. […] A freeze-thaw yield was calculated by the following formula: freeze-thaw yield=concentration of polypeptide after the freezing and thawing/concentration of polypeptide before the freezing and thawing.

| Structure (SMILES) | Dissolution property | Freeze storage property | Freeze storage yield |
| --- | --- | --- | --- |
| CC[C@H](C)[C@H](NC(=O)[C@@H]1CCCN1C(=O)[C@H](CCCCNC(=O)CC[C@H](NC(=O)CCCCCCCCCCCCCCCCCCC(=O)O)C(=O)O)NC(=O)[C@H](CC(C)C)NC(=O)[C@H](CC(N)=O)NC(=O)[C@H](CC(N)=O)NC(=O)[C@H](CO)NC(=O)[C@H](CO)NC(=O)[C@H](Cc1c[nH]cn1)NC(=O)[C@H](CCCNC(=N)N)NC(=O)[C@H](CC(C)C)NC(=O)[C@H](Cc1ccccc1)NC(=O)[C@H](CCC(=O)O)NC(=O)[C@H](C)NC(=O)[C@H](CC(C)C)NC(=O)[C@H](CCCNC(=N)N)NC(=O)[C@H](CCC(N)=O)NC(=O)[C@@H](NC(=O)[C@H](C)NC(=O)[C@@H]1CSSC[C@H](NC(=O)[C@@H](N)CCCNC(=N)N)C(=O)N[C@@H](CC(N)=O)C(=O)N[C@@H]([C@@H](C)O)C(=O)N[C@@H](C)C(=O)N[C@@H]([C@@H](C)O)C(=O)N1)[C@@H](C)O)C(=O)N[C@@H](CC(C)C)C(=O)N1CCC[C@H]1C(=O)N[C@@H](CO)C(=O)N[C@H](C(=O)N[C@@H](CC(N)=O)C(=O)N[C@H](C(=O)NCC(=O)N[C@@H](CO)C(=O)N[C@@H](CC(N)=O)C(=O)N[C@H](C(=O)N1CCC[C@H]1C(N)=O)[C@@H](C)O)C(C)C)[C@@H](C)O [PD014] (H-RCNTATCATQRLAEFLRHSSNNLK([γGlu-C20 diacid])PILPSTNVGSNTP-NH2; disulfide 2-7) | Clear | Clear | 95.77% |
| CC[C@H](C)[C@H](NC(=O)[C@@H]1CCCN1C(=O)[C@H](CCCCNC(=O)CC[C@H](NC(=O)CCCCCCCCCCCCCCCCCCC(=O)O)C(=O)O)NC(=O)[C@H](CC(C)C)NC(=O)[C@H](CC(N)=O)NC(=O)[C@H](CC(N)=O)NC(=O)[C@H](CO)NC(=O)[C@H](CO)NC(=O)[C@H](Cc1c[nH]cn1)NC(=O)[C@H](CCCNC(=N)N)NC(=O)[C@H](CC(C)C)NC(=O)[C@H](Cc1ccccc1)NC(=O)[C@H](CCC(=O)O)NC(=O)[C@H](C)NC(=O)[C@H](CC(C)C)NC(=O)[C@H](CCCNC(=N)N)NC(=O)[C@H](CCC(N)=O)NC(=O)[C@@H](NC(=O)[C@H](C)NC(=O)[C@@H]1CSSC[C@H](NC(=O)[C@@H](N)CCCNC(=N)N)C(=O)N[C@@H](CC(N)=O)C(=O)N[C@@H]([C@@H](C)O)C(=O)N[C@@H](C)C(=O)N[C@@H]([C@@H](C)O)C(=O)N1)[C@@H](C)O)C(=O)N[C@@H](CC(C)C)C(=O)N[C@@H](CO)C(=O)N1CCC[C@H]1C(=O)N[C@H](C(=O)N[C@@H](CC(N)=O)C(=O)N[C@H](C(=O)NCC(=O)N[C@@H](CO)C(=O)N[C@@H](CC(N)=O)C(=O)N[C@H](C(=O)N1CCC[C@H]1C(N)=O)[C@@H](C)O)C(C)C)[C@@H](C)O [PD015] (H-RCNTATCATQRLAEFLRHSSNNLK([γGlu-C20 diacid])PILSPTNVGSNTP-NH2; disulfide 2-7) | Clear | – | 0.00% |
| CC[C@H](C)[C@H](NC(=O)[C@H](C)NC(=O)[C@H](CCCCNC(=O)CC[C@H](NC(=O)CCCCCCCCCCCCCCCCCCC(=O)O)C(=O)O)NC(=O)[C@H](CC(C)C)NC(=O)[C@H](CC(N)=O)NC(=O)[C@H](CC(N)=O)NC(=O)[C@H](CO)NC(=O)[C@H](CO)NC(=O)[C@H](Cc1c[nH]cn1)NC(=O)[C@H](CCCNC(=N)N)NC(=O)[C@H](CC(C)C)NC(=O)[C@H](Cc1ccccc1)NC(=O)[C@H](CCC(=O)O)NC(=O)[C@H](C)NC(=O)[C@H](CC(C)C)NC(=O)[C@H](CCCNC(=N)N)NC(=O)[C@H](CCC(N)=O)NC(=O)[C@@H](NC(=O)[C@H](C)NC(=O)[C@@H]1CSSC[C@H](NC(=O)[C@@H](N)CCCNC(=N)N)C(=O)N[C@@H](CC(N)=O)C(=O)N[C@@H]([C@@H](C)O)C(=O)N[C@@H](C)C(=O)N[C@@H]([C@@H](C)O)C(=O)N1)[C@@H](C)O)C(=O)N[C@@H](CC(C)C)C(=O)N1CCC[C@H]1C(=O)N1CCC[C@H]1C(=O)N[C@H](C(=O)N[C@@H](CC(N)=O)C(=O)N[C@H](C(=O)NCC(=O)N[C@@H](CO)C(=O)N[C@@H](CC(N)=O)C(=O)N[C@H](C(=O)N1CCC[C@H]1C(N)=O)[C@@H](C)O)C(C)C)[C@@H](C)O [PD016] (H-RCNTATCATQRLAEFLRHSSNNLK([γGlu-C20 diacid])AILPPTNVGSNTP-NH2; disulfide 2-7) | Clear | Clear | 75.53% |
| CC[C@H](C)[C@H](NC(=O)[C@H](C)NC(=O)[C@H](CCCCNC(=O)CC[C@H](NC(=O)CCCCCCCCCCCCCCCCCCC(=O)O)C(=O)O)NC(=O)[C@H](CC(C)C)NC(=O)[C@H](CC(N)=O)NC(=O)[C@H](CC(N)=O)NC(=O)[C@H](CO)NC(=O)[C@H](CO)NC(=O)[C@H](Cc1c[nH]cn1)NC(=O)[C@H](CCCNC(=N)N)NC(=O)[C@H](CC(C)C)NC(=O)[C@H](Cc1ccccc1)NC(=O)[C@H](CCC(=O)O)NC(=O)[C@H](C)NC(=O)[C@H](CC(C)C)NC(=O)[C@H](CCCNC(=N)N)NC(=O)[C@H](CCC(N)=O)NC(=O)[C@@H](NC(=O)[C@H](C)NC(=O)[C@@H]1CSSC[C@H](NC(=O)[C@@H](N)CCCNC(=N)N)C(=O)N[C@@H](CC(N)=O)C(=O)N[C@@H]([C@@H](C)O)C(=O)N[C@@H](C)C(=O)N[C@@H]([C@@H](C)O)C(=O)N1)[C@@H](C)O)C(=O)N[C@@H](CC(C)C)C(=O)N[C@@H](CO)C(=O)N[C@@H](CO)C(=O)N[C@H](C(=O)N[C@@H](CC(N)=O)C(=O)N[C@H](C(=O)NCC(=O)N[C@@H](CO)C(=O)N[C@@H](CC(N)=O)C(=O)N[C@H](C(=O)N[C@@H](Cc1ccc(O)cc1)C(N)=O)[C@@H](C)O)C(C)C)[C@@H](C)O [PD018] (H-RCNTATCATQRLAEFLRHSSNNLK([γGlu-C20 diacid])AILSSTNVGSNTY-NH2; disulfide 2-7) | Muddy | Muddy | 33.24% |
| CC[C@H](C)[C@H](NC(=O)[C@@H]1CCCN1C(=O)[C@H](CCCCNC(=O)CC[C@H](NC(=O)CCCCCCCCCCCCCCCCCCC(=O)O)C(=O)O)NC(=O)[C@H](CC(C)C)NC(=O)[C@H](CC(N)=O)NC(=O)[C@H](CC(N)=O)NC(=O)[C@H](CO)NC(=O)[C@H](CO)NC(=O)[C@H](Cc1c[nH]cn1)NC(=O)[C@H](CCCNC(=N)N)NC(=O)[C@H](CC(C)C)NC(=O)[C@H](Cc1ccccc1)NC(=O)[C@H](CCC(=O)O)NC(=O)[C@H](C)NC(=O)[C@H](CC(C)C)NC(=O)[C@H](CCCNC(=N)N)NC(=O)[C@H](CCC(N)=O)NC(=O)[C@@H](NC(=O)[C@H](C)NC(=O)[C@@H]1CSSC[C@H](NC(=O)[C@@H](N)CCCNC(=N)N)C(=O)N[C@@H](CC(N)=O)C(=O)N[C@@H]([C@@H](C)O)C(=O)N[C@@H](C)C(=O)N[C@@H]([C@@H](C)O)C(=O)N1)[C@@H](C)O)C(=O)N[C@@H](CC(C)C)C(=O)N[C@@H](CO)C(=O)N[C@@H](CO)C(=O)N[C@H](C(=O)N[C@@H](CC(N)=O)C(=O)N[C@H](C(=O)NCC(=O)N[C@@H](CO)C(=O)N[C@@H](CC(N)=O)C(=O)N[C@H](C(=O)N[C@@H](Cc1ccc(O)cc1)C(N)=O)[C@@H](C)O)C(C)C)[C@@H](C)O [PD019] (H-RCNTATCATQRLAEFLRHSSNNLK([γGlu-C20 diacid])PILSSTNVGSNTY-NH2; disulfide 2-7) | Muddy | Muddy | No peak |
| CC[C@H](C)[C@H](NC(=O)[C@H](C)NC(=O)[C@H](CCCCNC(=O)CC[C@H](NC(=O)CCCCCCCCCCCCCCCCCCC(=O)O)C(=O)O)NC(=O)[C@H](CC(C)C)NC(=O)[C@H](CC(N)=O)NC(=O)[C@H](CC(N)=O)NC(=O)[C@H](CO)NC(=O)[C@H](CO)NC(=O)[C@H](Cc1c[nH]cn1)NC(=O)[C@H](CCCNC(=N)N)NC(=O)[C@H](CC(C)C)NC(=O)[C@H](Cc1ccccc1)NC(=O)[C@H](CCC(=O)O)NC(=O)[C@H](C)NC(=O)[C@H](CC(C)C)NC(=O)[C@H](CCCNC(=N)N)NC(=O)[C@H](CCC(N)=O)NC(=O)[C@@H](NC(=O)[C@H](C)NC(=O)[C@@H]1CSSC[C@H](NC(=O)[C@@H](N)CCCNC(=N)N)C(=O)N[C@@H](CC(N)=O)C(=O)N[C@@H]([C@@H](C)O)C(=O)N[C@@H](C)C(=O)N[C@@H]([C@@H](C)O)C(=O)N1)[C@@H](C)O)C(=O)N[C@@H](CC(C)C)C(=O)N1CCC[C@H]1C(=O)N[C@@H](CO)C(=O)N[C@H](C(=O)N[C@@H](CC(N)=O)C(=O)N[C@H](C(=O)NCC(=O)N[C@@H](CO)C(=O)N[C@@H](CC(N)=O)C(=O)N[C@H](C(=O)N[C@@H](Cc1ccc(O)cc1)C(N)=O)[C@@H](C)O)C(C)C)[C@@H](C)O [PD020] (H-RCNTATCATQRLAEFLRHSSNNLK([γGlu-C20 diacid])AILPSTNVGSNTY-NH2; disulfide 2-7) | – | Muddy | 0.00% |
